{"source": "PubChem BioAssay AID504832", "about": "(National Center for Advancing Translational Sciences (NCATS), 2011)", "note": "The whole screen tested about 310,000 compounds, of which about 18,000 (5.8%) were called active. The shares of active, inactive and inconclusive entries below differ from those in the screen. Calls follow the shape of the dose curve; as a rule, active = well fitted inhibition curve with a large enough effect; inconclusive = small, poorly fitted or top-dose-only effect, or another doubt; inactive = no such curve, though single readings can be large or run the other way. Potencies of inconclusive entries are left out as doubtful fits. % is scaled to controls: 0 for no effect and ±100 for the full control effect; potency is read from the fitted curve at half-maximal effect; tags tell the direction and shape of the fitted curve.", "data": [{"test": "Primary qHTS for delayed death inhibitors of the malarial parasite plastid, 48 hour incubation", "conditions": "P. falciparum luciferase growth in erythrocytes; series mostly up to 28.7 µM; activity change, negative = inhibition: at the top concentration", "procedure,_shortened": "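Firefly luciferase activity from engineered P. falciparum reports growth; inhibitors lower the luminescent signal. Cultures contained 2% hematocrit erythrocytes at 0.1% final parasitemia.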", "values": [{"smiles": "CCCCN(C)CCC(=O)Nc1ccc2c(c1)CCC2", "Potency": "inconclusive [inhibitor, single point]"}, {"smiles": "CC(=O)c1ccc(NC(=O)CSc2ccc(-c3ccc4c(c3)OCO4)nn2)cc1", "activity change, negative = inhibition": "inactive: 69.4%"}, {"smiles": "COc1ccccc1N(CC(=O)N/N=C(\\C)c1ccc(F)cc1)S(=O)(=O)c1ccccc1", "Potency": "inconclusive [inhibitor, partial curve]"}, {"smiles": "CCCc1nnc(NC(=O)OCC)s1", "activity change, negative = inhibition": "inactive: 50.9%"}, {"smiles": "O=Cc1c(C(=O)O)n(CC(=O)O)c2ccccc12", "activity change, negative = inhibition": "inactive: 22.8%"}, {"smiles": "Clc1cccc(CN2CCCCCCC2)c1Cl", "activity change, negative = inhibition": "inactive: 3.01%"}, {"smiles": "O=C(Nc1ccc(Cl)cn1)c1cccc2ccccc12", "activity change, negative = inhibition": "inactive: 29.9%"}, {"smiles": "COC(=O)/C=C1\\S/C(=N/NC(=O)c2ccccc2)NC1=O", "Potency": "inconclusive [inhibitor, partial curve, poor fit]"}, {"smiles": "COc1ccc(-c2nc(N3CCC(C)CC3)[nH]c(=O)c2C#N)cc1", "Potency": "inconclusive [inhibitor, single point]"}, {"smiles": "CC(C)n1ncc2c(C(=O)Nc3ccc(S(C)(=O)=O)cc3)cc(C3CC3)nc21", "Potency": "inconclusive [inhibitor, single point]"}, {"smiles": "Cn1c(=O)n(C)c2cc([N+](=O)[O-])c(N3CCN(C(=O)c4ccccc4)CC3)cc21", "Potency": "inconclusive [inhibitor, full curve, poor fit]"}, {"smiles": "COc1ccc(/C=N/n2c(SC)nnc2-c2ccccc2)c(OC)c1OC", "Potency": "inconclusive [inhibitor, single point]"}, {"smiles": "Cn1cnc([N+](=O)[O-])c1Sc1ccc(Br)cc1", "Potency": "inconclusive [inhibitor, single point]"}, {"smiles": "CCc1cccc(C)c1NC(=O)C1CC(=O)N(C2CCCC2)C1", "note": "(stereo unspecified)", "activity change, negative = inhibition": "inactive: 0.556%"}, {"smiles": "O=C(CC1C(=O)NCCN1Cc1ccccc1C(F)(F)F)NC1CCCC1", "note": "(stereo unspecified)", "activity change, negative = inhibition": "inactive: 29.8%"}, {"smiles": "CN(C)S(=O)(=O)c1cccc(C(=O)NCC(C)(C)CNC(=O)c2cccc(S(=O)(=O)N(C)C)c2)c1", "Potency": "inconclusive [inhibitor, partial curve, poor fit]"}, {"smiles": "O=C(Nc1ccccc1-c1nnc(SCc2ccc(Cl)cc2)o1)c1ccccc1", "Potency": "active: 13.1 µM"}, {"smiles": "CCCCN(CC)CCNC(=S)Nc1ccc2nc(N3CCN(C)CC3)cc(C)c2c1", "Potency": "active: 1.65 µM"}, {"smiles": "S=c1[nH]nc(-c2ccco2)n1/N=C/C(Cl)=C/c1ccccc1", "Potency": "active: 5.22 µM"}, {"smiles": "Cc1ccc(-c2nc3c4ccccc4ccn3c2CN2CCCCC2)cc1", "Potency": "active: 9.28 µM"}, {"smiles": "O=C(c1ccc(CS(=O)c2cccc(Cl)c2)o1)N1CCN(c2ccccn2)CC1", "note": "(stereo unspecified)", "Potency": "inconclusive [inhibitor, partial curve]"}]}]}
